Assay results from the supplement of paper PMC4604168 (melanoma cell lines).
The list shows a part of the results. Single values are uncertain, as repeats are few or missing.

Experiments:
Experiment in all cases: cell count relative to DMSO control; melanoma cells; higher = more viable cells
Settings in all cases: library dose: standard library concentration; 72 h
[1] = system: A101D
[2] = system: A2058
[3] = system: A375
[4] = system: 501Mel
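Further: cells treated in 1,536-well plates, then fixed and DAPI-stained, with nuclei counted from automated high-throughput microscope images.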

Structure (SMILES)	cell count [1] [%]	cell count [2] [%]	cell count [3] [%]	cell count [4] [%]
O=C(/C=C/c1cccnc1)NCCCCC1CCN(C(=O)c2ccccc2)CC1 + OCCn1cc(-c2cnc3nnn(Cc4ccc5ncccc5c4)c3n2)cn1 [PF04217903] (first compound 0.05 µM, partner dose 5 µM)	93.4	109	128	–
CC1(C)CCC(c2ccc(Cl)cc2)=C(CN2CCN(c3ccc(C(=O)NS(=O)(=O)c4ccc(N[C@H](CCN5CCOCC5)CSc5ccccc5)c(S(=O)(=O)C(F)(F)F)c4)cc3)CC2)C1 + COc1ccc(C2=N[C@@H](c3ccc(Cl)cc3)[C@@H](c3ccc(Cl)cc3)N2C(=O)N2CCNC(=O)C2)c(OC(C)C)c1 [Nutlin-3] (first compound 2 µM, partner dose 0.5 µM)	36.8	94.2	55	–
Cc1ccc(Nc2nccc(N(C)c3ccc4c(C)n(C)nc4c3)n2)cc1S(N)(=O)=O [Pazopanib] + Oc1cc(-c2nc(-c3ccccc3)[nH]c2-c2ccncc2)ccc1Cl [L779450] (first compound 2 µM, partner dose 1 µM)	63.4	89.8	80.4	74.3
O=C(/C=C/c1cccnc1)NCCCCC1CCN(C(=O)c2ccccc2)CC1 + CC1(C)CCC(c2ccc(Cl)cc2)=C(CN2CCN(c3ccc(C(=O)NS(=O)(=O)c4ccc(N[C@H](CCN5CCOCC5)CSc5ccccc5)c(S(=O)(=O)C(F)(F)F)c4)cc3)CC2)C1 [ABT263] (first compound 0.05 µM, partner dose 2 µM)	41.1	98.4	79.1	–
O=C(/C=C/c1cccnc1)NCCCCC1CCN(C(=O)c2ccccc2)CC1 + CCCCCCCCCCCC1=C(O)C(=O)C=C(O)C1=O [Embelin] (first compound 0.05 µM, partner dose 6 µM)	68.5	93.2	112	79.3
CC1(C)CCC(c2ccc(Cl)cc2)=C(CN2CCN(c3ccc(C(=O)NS(=O)(=O)c4ccc(N[C@H](CCN5CCOCC5)CSc5ccccc5)c(S(=O)(=O)C(F)(F)F)c4)cc3)CC2)C1 + O=C(O)C(=O)Nc1sc2c(c1C(=O)O)CCNC2 [TCS401] (first compound 2 µM, partner dose 8.33333 µM)	49.5	102	87.2	102
O=C(/C=C/c1cccnc1)NCCCCC1CCN(C(=O)c2ccccc2)CC1 + O=C(O)C(=O)Nc1sc2c(c1C(=O)O)CCNC2 [TCS401] (first compound 0.05 µM, partner dose 8.33333 µM)	86.5	85.7	189	83.2
CC1(C)CCC(c2ccc(Cl)cc2)=C(CN2CCN(c3ccc(C(=O)NS(=O)(=O)c4ccc(N[C@H](CCN5CCOCC5)CSc5ccccc5)c(S(=O)(=O)C(F)(F)F)c4)cc3)CC2)C1 + CCN(CC)CCNC(=O)c1c(C)[nH]c(/C=C2\C(=O)Nc3ccc(F)cc32)c1C [sunitinib] (first compound 2 µM, partner dose 2 µM)	20.9	42.4	54.7	–
O=C(/C=C/c1cccnc1)NCCCCC1CCN(C(=O)c2ccccc2)CC1 + CN(C)S(=O)(=O)c1ccc2c(c1)/C(=C/c1cc3c([nH]1)CCCC3)C(=O)N2 [SU6656] (first compound 0.05 µM, partner dose 2 µM)	77.3	122	155	–
O=C(/C=C/c1cccnc1)NCCCCC1CCN(C(=O)c2ccccc2)CC1 + NC(=O)c1ccc(N(C(N)=O)c2c(F)cccc2F)nc1-c1ccc(F)cc1F [VX702] (first compound 0.05 µM, partner dose 2 µM)	73	94.8	122	–
Cc1ccc(Nc2nccc(N(C)c3ccc4c(C)n(C)nc4c3)n2)cc1S(N)(=O)=O [Pazopanib] + c1cc(-c2cnn3cc(-c4ccc(OCCN5CCCCC5)cc4)cnc23)ccn1 [Dorsomorphin] (first compound 2 µM, partner dose 2 µM)	69.8	99.1	75.3	57.9
CC1(C)CCC(c2ccc(Cl)cc2)=C(CN2CCN(c3ccc(C(=O)NS(=O)(=O)c4ccc(N[C@H](CCN5CCOCC5)CSc5ccccc5)c(S(=O)(=O)C(F)(F)F)c4)cc3)CC2)C1 + CC(C)CCN1c2nc(Nc3cc(F)c(O)c(F)c3)ncc2N(C)C(=O)C1C [BID1870] (first compound 2 µM, partner dose 1 µM)	28.1	89.1	192	54.1
